{"source": "the supplement of paper PMC8728848", "binders": {"B1": {"name": "PX14343A-bvu-539-29-539 (Bacteroides vulgatus) (protein)", "chain": "DSLTESSSNTFWQTPDDALMALASCYDALQSNQLYNSDQYSLGPLYMDCISDNGGHFNWSGWMEGYDMAMGIHTPSSSIIGSYWKDCYEVISRCNVLIANIDRVDMDASQKAIYQAEAKTIRALMYINLTMTYQDVPFLTAPLTIDEAECEKTDRAAIVAHVMTDLQDAAEVLPQNASSRGHITKGAALSLLGRVALYNEKWDDAIAAYKQVQGLGYSLDPSYAKLFTQSGETSPEIIFAVRYEGPGMSEGAAFNAHWNTPLEAMNGTIDLADAYYCKDGKPTTDTKIAELNGGGGLDVSKPNPAHFENRDPRLYSTLFVPGMLWNGKGGIDTSASNPYANVYGGAAASLSTVYVYKYFDPTDTSNSWDNGQDFYVVRYAEVLLSLAEAMVQKGGYVYSDVTALVNEVRQRADVNMPTVEEVEGTSLSKDELLEVIKHERRVELAFEGLRLFDLYRWKELDKAVANIENERTMYGLAYEARKFNGERDYVWPLPTAELDTNKKLVQHDLWK"}}, "test_in_all_cases": "glycan array binding signal (z-score within array); higher = stronger binding", "details_in_all_cases": "glycan notation: IUPAC condensed, linker removed", "key": {"[1]": {"target": "Neu5Ac(a2-3)Gal(b1-3)GalNAc", "how_it_was_run": "(§1)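 Negative Z-scores can be read as non-binding. The Z-score is calculated within each array and then averaged across arrays of one protein sequence at different concentrations or buffers and across linkers. Arrays, 3228 in all, were curated from the Consortium for Functional Glycomics database and kept only where the protein sequence was available.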"}, "[2]": {"target": "Neu5Ac(a2-3)Gal(b1-3)GalNAc(b1-3)Gal(a1-4)Gal(b1-4)Glc", "how_it_was_run": "as §1"}, "[3]": {"target": "Neu5Ac(a2-3)Gal(b1-3)GalNAc(b1-4)[Neu5Ac(a2-3)]Gal(b1-4)Glc", "how_it_was_run": "as §1"}, "[4]": {"target": "Neu5Ac(a2-3)Gal(b1-3)GalNAc(b1-4)[Neu5Ac(a2-8)Neu5Ac(a2-3)]Gal(b1-4)Glc", "how_it_was_run": "as §1"}, "[5]": {"target": "Neu5Ac(a2-3)Gal(b1-3)GalNAc6S", "how_it_was_run": "as §1"}, "[6]": {"target": "Neu5Ac(a2-3)Gal(b1-3)GlcNAc", "how_it_was_run": "as §1"}, "[7]": {"target": "Neu5Ac(a2-3)Gal(b1-3)GlcNAc(b1-2)Man", "how_it_was_run": "as §1"}, "[8]": {"target": "Neu5Ac(a2-3)Gal(b1-3)GlcNAc(b1-2)Man(a1-3)[GlcNAc(b1-4)][Neu5Ac(a2-3)Gal(b1-3)GlcNAc(b1-2)Man(a1-6)]Man(b1-4)GlcNAc(b1-4)GlcNAc", "how_it_was_run": "as §1"}, "[9]": {"target": "Neu5Ac(a2-3)Gal(b1-3)GlcNAc(b1-2)Man(a1-3)[Neu5Ac(a2-3)Gal(b1-3)GlcNAc(b1-2)Man(a1-6)]Man(b1-4)GlcNAc(b1-4)GlcNAc", "how_it_was_run": "as §1"}, "[10]": {"target": "Neu5Ac(a2-3)Gal(b1-3)GlcNAc(b1-3)Gal(b1-3)GlcNAc", "how_it_was_run": "as §1"}, "[11]": {"target": "Neu5Ac(a2-3)Gal(b1-3)GlcNAc(b1-3)Gal(b1-4)GlcNAc", "how_it_was_run": "as §1"}, "[12]": {"target": "Neu5Ac(a2-3)Gal(b1-3)GlcNAc(b1-3)GalNAc", "how_it_was_run": "as §1"}, "[13]": {"target": "Neu5Ac(a2-3)Gal(b1-3)GlcNAc(b1-4)Gal(b1-4)Glc", "how_it_was_run": "as §1"}, "[14]": {"target": "Neu5Ac(a2-3)Gal(b1-3)GlcNAc(b1-6)GalNAc", "how_it_was_run": "as §1"}, "[15]": {"target": "Neu5Ac(a2-3)Gal(b1-3)GlcNAc6S", "how_it_was_run": "as §1"}, "[16]": {"target": "Neu5Ac(a2-3)Gal(b1-3)[Fuc(a1-4)]GlcNAc", "how_it_was_run": "as §1"}, "[17]": {"target": "Neu5Ac(a2-3)Gal(b1-3)[Fuc(a1-4)]GlcNAc(b1-3)Gal(b1-3)[Fuc(a1-4)]GlcNAc", "how_it_was_run": "as §1"}, "[18]": {"target": "Neu5Ac(a2-3)Gal(b1-3)[Fuc(a1-4)]GlcNAc(b1-3)Gal(b1-4)[Fuc(a1-3)]GlcNAc", "how_it_was_run": "as §1"}, "[19]": {"target": "Neu5Ac(a2-3)Gal(b1-3)[GlcNAc(b1-6)]GalNAc", "how_it_was_run": "as §1"}, "[20]": {"target": "Neu5Ac(a2-3)Gal(b1-3)[Neu5Ac(a2-6)]GalNAc", "how_it_was_run": "as §1"}, "[21]": {"target": "Neu5Ac(a2-3)Gal(b1-3)[Neu5Ac(a2-6)]GlcNAc(b1-3)[Fuc(a1-3)[Gal(b1-4)]GlcNAc(b1-6)]Gal(b1-4)Glc", "how_it_was_run": "as §1"}, "[22]": {"target": "Neu5Ac(a2-3)Gal(b1-3)]Neu5Ac(a2-3)Gal(b1-4)]GlcNAc", "how_it_was_run": "as §1"}, "[23]": {"target": "Neu5Ac(a2-3)Gal(b1-4)Glc", "how_it_was_run": "as §1"}, "[24]": {"target": "Neu5Ac(a2-3)Gal(b1-4)GlcNAc", "how_it_was_run": "as §1"}, "[25]": {"target": "Neu5Ac(a2-3)Gal(b1-4)GlcNAc(b1-2)Man", "how_it_was_run": "as §1"}, "[26]": {"target": "Neu5Ac(a2-3)Gal(b1-4)GlcNAc(b1-2)Man(a1-3)[GlcNAc(b1-4)][Neu5Ac(a2-3)Gal(b1-4)GlcNAc(b1-2)Man(a1-6)]Man(b1-4)GlcNAc(b1-4)GlcNAc", "how_it_was_run": "as §1"}, "[27]": {"target": "Neu5Ac(a2-3)Gal(b1-4)GlcNAc(b1-2)Man(a1-3)[Neu5Ac(a2-3)Gal(b1-4)GlcNAc(b1-2)Man(a1-6)]Man(b1-4)GlcNAc(b1-4)GlcNAc", "how_it_was_run": "as §1"}, "[28]": {"target": "Neu5Ac(a2-3)Gal(b1-4)GlcNAc(b1-2)Man(a1-3)[Neu5Ac(a2-3)Gal(b1-4)GlcNAc(b1-2)Man(a1-6)]Man(b1-4)GlcNAc(b1-4)[Fuc(a1-6)]GlcNAc", "how_it_was_run": "as §1"}, "[29]": {"target": "Neu5Ac(a2-3)Gal(b1-4)GlcNAc(b1-2)Man(a1-3)[Neu5Ac(a2-6)Gal(b1-4)GlcNAc(b1-2)Man(a1-6)]Man(b1-4)GlcNAc(b1-4)GlcNAc", "how_it_was_run": "as §1"}, "[30]": {"target": "Neu5Ac(a2-3)Gal(b1-4)GlcNAc(b1-2)[Neu5Ac(a2-3)Gal(b1-4)GlcNAc(b1-4)]Man(a1-3)[GlcNAc(b1-4)][Neu5Ac(a2-3)Gal(b1-4)GlcNAc(b1-2)[Neu5Ac(a2-3)Gal(b1-4)GlcNAc(b1-6)]Man(a1-6)]Man(b1-4)GlcNAc(b1-4)GlcNAc", "how_it_was_run": "as §1"}, "[31]": {"target": "Neu5Ac(a2-3)Gal(b1-4)GlcNAc(b1-2)[Neu5Ac(a2-3)Gal(b1-4)GlcNAc(b1-4)]Man(a1-3)[GlcNAc(b1-4)][Neu5Ac(a2-3)Gal(b1-4)GlcNAc(b1-4)Man(a1-6)]Man(b1-4)GlcNAc(b1-4)GlcNAc", "how_it_was_run": "as §1"}, "[32]": {"target": "Neu5Ac(a2-3)Gal(b1-4)GlcNAc(b1-2)[Neu5Ac(a2-3)Gal(b1-4)GlcNAc(b1-6)]Man(a1-6)[Neu5Ac(a2-3)Gal(b1-4)GlcNAc(b1-2)Man(a1-3)]Man(b1-4)GlcNAc(b1-4)GlcNAc", "how_it_was_run": "as §1"}, "[33]": {"target": "Neu5Ac(a2-3)Gal(b1-4)GlcNAc(b1-2)[Neu5Ac(a2-3)Gal(b1-4)GlcNAc(b1-6)]Man(a1-6)[Neu5Ac(a2-3)Gal(b1-4)GlcNAc(b1-2)Man(a1-3)][GlcNAc(b1-4)]Man(b1-4)GlcNAc(b1-4)GlcNAc", "how_it_was_run": "as §1"}, "[34]": {"target": "Neu5Ac(a2-3)Gal(b1-4)GlcNAc(b1-3)Gal", "how_it_was_run": "as §1"}, "[35]": {"target": "Neu5Ac(a2-3)Gal(b1-4)GlcNAc(b1-3)Gal(b1-3)GlcNAc", "how_it_was_run": "as §1"}, "[36]": {"target": "Neu5Ac(a2-3)Gal(b1-4)GlcNAc(b1-3)Gal(b1-4)GlcNAc", "how_it_was_run": "as §1"}, "[37]": {"target": "Neu5Ac(a2-3)Gal(b1-4)GlcNAc(b1-3)Gal(b1-4)GlcNAc(b1-2)Man(a1-3)[Neu5Ac(a2-3)Gal(b1-4)GlcNAc(b1-3)Gal(b1-4)GlcNAc(b1-2)Man(a1-6)]Man(b1-4)GlcNAc(b1-4)GlcNAc", "how_it_was_run": "as §1"}}, "note": "The list shows a part of the results."}
{"binder": "B1", "values": [{"measurement": "glycan array binding signal (z-score)", "setting": "[1]", "value": -0.339}, {"measurement": "glycan array binding signal (z-score)", "setting": "[2]", "value": -0.244}, {"measurement": "glycan array binding signal (z-score)", "setting": "[3]", "value": -0.382}, {"measurement": "glycan array binding signal (z-score)", "setting": "[4]", "value": -0.04}, {"measurement": "glycan array binding signal (z-score)", "setting": "[5]", "value": -0.395}, {"measurement": "glycan array binding signal (z-score)", "setting": "[6]", "value": -0.327}, {"measurement": "glycan array binding signal (z-score)", "setting": "[7]", "value": 0.076}, {"measurement": "glycan array binding signal (z-score)", "setting": "[8]", "value": -0.271}, {"measurement": "glycan array binding signal (z-score)", "setting": "[9]", "value": -0.218}, {"measurement": "glycan array binding signal (z-score)", "setting": "[10]", "value": -0.368}, {"measurement": "glycan array binding signal (z-score)", "setting": "[11]", "value": -0.246}, {"measurement": "glycan array binding signal (z-score)", "setting": "[12]", "value": -0.389}, {"measurement": "glycan array binding signal (z-score)", "setting": "[13]", "value": -0.158}, {"measurement": "glycan array binding signal (z-score)", "setting": "[14]", "value": -0.033}, {"measurement": "glycan array binding signal (z-score)", "setting": "[15]", "value": 0.032}, {"measurement": "glycan array binding signal (z-score)", "setting": "[16]", "value": -0.151}, {"measurement": "glycan array binding signal (z-score)", "setting": "[17]", "value": 0.264}, {"measurement": "glycan array binding signal (z-score)", "setting": "[18]", "value": -0.171}, {"measurement": "glycan array binding signal (z-score)", "setting": "[19]", "value": -0.325}, {"measurement": "glycan array binding signal (z-score)", "setting": "[20]", "value": 0.662}, {"measurement": "glycan array binding signal (z-score)", "setting": "[21]", "value": -0.277}, {"measurement": "glycan array binding signal (z-score)", "setting": "[22]", "value": -0.372}, {"measurement": "glycan array binding signal (z-score)", "setting": "[23]", "value": -0.296}, {"measurement": "glycan array binding signal (z-score)", "setting": "[24]", "value": -0.373}, {"measurement": "glycan array binding signal (z-score)", "setting": "[25]", "value": -0.237}, {"measurement": "glycan array binding signal (z-score)", "setting": "[26]", "value": -0.45}, {"measurement": "glycan array binding signal (z-score)", "setting": "[27]", "value": -0.356}, {"measurement": "glycan array binding signal (z-score)", "setting": "[28]", "value": -0.157}, {"measurement": "glycan array binding signal (z-score)", "setting": "[29]", "value": -0.028}, {"measurement": "glycan array binding signal (z-score)", "setting": "[30]", "value": -0.173}, {"measurement": "glycan array binding signal (z-score)", "setting": "[31]", "value": -0.312}, {"measurement": "glycan array binding signal (z-score)", "setting": "[32]", "value": -0.24}, {"measurement": "glycan array binding signal (z-score)", "setting": "[33]", "value": -0.114}, {"measurement": "glycan array binding signal (z-score)", "setting": "[34]", "value": -0.377}, {"measurement": "glycan array binding signal (z-score)", "setting": "[35]", "value": -0.159}, {"measurement": "glycan array binding signal (z-score)", "setting": "[36]", "value": -0.378}, {"measurement": "glycan array binding signal (z-score)", "setting": "[37]", "value": -0.096}]}
